About 14,000 (4.5%) of roughly 310,000 compounds showed an effect of 50% or more. The effect is printed as a negative number. This is one part of the list.
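Further: peak tail current of the secondary pulse compared with the same well before compound.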

The target in this assay is human ether-à-go-go-related gene (hERG) potassium channel (human, UniProt Q12809). In words: primary screen, population patch clamp on CHO cells stably expressing hERG.
human ether-à-go-go-related gene (hERG) potassium channel, sequence (Q12809 whole entry, looked up): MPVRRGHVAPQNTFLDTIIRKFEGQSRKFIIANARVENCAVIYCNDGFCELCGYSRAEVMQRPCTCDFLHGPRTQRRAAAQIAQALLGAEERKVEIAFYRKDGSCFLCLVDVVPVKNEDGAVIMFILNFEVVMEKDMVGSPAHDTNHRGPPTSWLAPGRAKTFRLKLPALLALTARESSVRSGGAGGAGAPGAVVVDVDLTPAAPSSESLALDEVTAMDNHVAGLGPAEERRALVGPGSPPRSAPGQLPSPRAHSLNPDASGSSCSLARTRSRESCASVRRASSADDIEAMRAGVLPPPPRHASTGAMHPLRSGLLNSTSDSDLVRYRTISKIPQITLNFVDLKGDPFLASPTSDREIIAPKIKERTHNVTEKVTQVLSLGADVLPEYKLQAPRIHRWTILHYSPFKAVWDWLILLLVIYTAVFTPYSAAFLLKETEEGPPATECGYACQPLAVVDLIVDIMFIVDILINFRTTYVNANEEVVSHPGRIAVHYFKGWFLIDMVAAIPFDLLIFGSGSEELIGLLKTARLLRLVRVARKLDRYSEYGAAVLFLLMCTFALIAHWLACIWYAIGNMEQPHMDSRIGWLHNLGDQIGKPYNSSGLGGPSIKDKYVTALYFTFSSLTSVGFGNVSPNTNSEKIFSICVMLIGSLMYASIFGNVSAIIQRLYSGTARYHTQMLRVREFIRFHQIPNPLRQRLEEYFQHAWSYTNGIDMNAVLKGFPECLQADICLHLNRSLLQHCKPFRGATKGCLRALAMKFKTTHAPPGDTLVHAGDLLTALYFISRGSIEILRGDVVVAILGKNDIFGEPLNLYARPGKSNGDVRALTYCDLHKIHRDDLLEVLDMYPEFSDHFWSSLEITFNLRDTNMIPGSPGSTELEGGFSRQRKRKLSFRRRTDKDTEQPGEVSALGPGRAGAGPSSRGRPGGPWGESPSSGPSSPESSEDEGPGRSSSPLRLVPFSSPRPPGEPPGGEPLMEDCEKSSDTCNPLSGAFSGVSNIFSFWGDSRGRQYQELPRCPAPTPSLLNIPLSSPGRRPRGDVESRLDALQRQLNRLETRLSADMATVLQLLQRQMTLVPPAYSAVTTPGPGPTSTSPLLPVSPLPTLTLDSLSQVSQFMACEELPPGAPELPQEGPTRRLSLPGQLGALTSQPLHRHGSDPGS
For the compound `CCS(=O)(=O)NCC(c1cccnc1)N1CCN(c2ccc(F)cc2)CC1` (stereo not drawn), the “hERG current change (%, negative = inhibition) at 10uM” value is -7.91%.
`Cc1cc(-c2cc(-c3ccc(Cl)cc3)on2)nc(NCC2CC2)n1`: the “hERG current change (%, negative = inhibition) at 10uM” value is -8.14%.
Consider `COc1ccc(C(=O)CC(=O)C(=O)Nc2ccc(OC)c(Cl)c2)cc1`, for which the “hERG current change (%, negative = inhibition) at 10uM” value was found to be 12.9%.
For `CCOC(=O)N1CCC(NC(=O)CNS(=O)(=O)c2ccc(Br)s2)CC1`, the “hERG current change (%, negative = inhibition) at 10uM” value came out at 1.87%.
Next, `Cc1ccc(OCCCCNC2CCCC(C)C2C)c(C)c1.O=C(O)C(=O)O` (stereo not drawn): -56.9%; `CCCCc1ccc(NC(=O)CN2NS(=O)(=O)c3ccccc3C2=O)cc1`: 8.24%; `CCOc1ccc2oc(C(=O)OC(C(=O)NC(N)=O)C(C)C)c(C)c2c1` (stereo not drawn): 8.24%.
Consider `Nc1nnc(SCC(=O)c2ccco2)s1`, for which the “hERG current change (%, negative = inhibition) at 10uM” value is -6.2%.
With `CCN1CCN(c2cc(C)c3cc(NC(=O)CCC(=O)N4CCN(c5ccccc5OC)CC4)ccc3n2)CC1`, the “hERG current change (%, negative = inhibition) at 10uM” value was 7.3%.
Next, `CCOC(=O)C1(Cc2ccccc2)CCCN(Cc2ccccn2)C1` (stereo not drawn): -20.7%; `Cl.N[C@@H](Cc1ccccc1)c1nnc(SCc2ccccc2F)o1`: 10.7%; `CN1CCN(C(=O)c2cnn(-c3ccccc3)c2NC(=O)c2ccc([N+](=O)[O-])cc2)CC1`: -51.6%.
Consider `O=c1c2ccccc2nc2n1CCCS2`, for which the “hERG current change (%, negative = inhibition) at 10uM” value was -3.61%.
As for `Cc1ccc(-c2nnc(/C=C/c3ccccc3)o2)cc1`, the “hERG current change (%, negative = inhibition) at 10uM” value is -0.573%.
In the case of `CCOC(=O)c1nnn(-c2nonc2N)c1CSc1ccc(C)cc1`, the “hERG current change (%, negative = inhibition) at 10uM” value is reported as -31.2%.
Regarding `COC(=O)c1c(NC(=O)CSc2nccn2C)sc(C)c1C`, the “hERG current change (%, negative = inhibition) at 10uM” value was -15.8%.
`O=C1C=C(c2ccc(F)nc2)C[C@@H](c2ccc3c(c2)OCO3)C1`: the “hERG current change (%, negative = inhibition) at 10uM” value is -7.35%.
The value for `CC1=NN(C(N)=S)C(=O)C1N=Nc1cccc([N+](=O)[O-])c1` (stereo not drawn) was -0.877%; that for `CCCCCn1c(=O)c(C(=O)NCc2ccccc2)c(O)c2ccccc21` was 15.2%.
Regarding `CSc1ccc(CN(C)CC(=O)NCCc2ccccc2)cc1`, the “hERG current change (%, negative = inhibition) at 10uM” value is reported as -35.5%.
For `Cc1cc(C)cc(NC(=O)CCn2ccnc2)c1`, the “hERG current change (%, negative = inhibition) at 10uM” value was 3.41%.
As to `CC(=O)c1ccc(S(=O)(=O)NCCC(=O)NCCc2c[nH]c3ccccc23)cc1`, the “hERG current change (%, negative = inhibition) at 10uM” value is -30.2%.
On to `Nc1ncc([N+](=O)[O-])c(N2CCCCCC2)n1`, for which the “hERG current change (%, negative = inhibition) at 10uM” value was determined as 23.5%.
As for `O=C(NCC1COc2ccccc2O1)c1ccc(Cl)c(S(=O)(=O)N2CCOCC2)c1` (stereo not drawn), the “hERG current change (%, negative = inhibition) at 10uM” value is on record as -43%.
Turning to `O=C(N1CCCCCC1)N1CCN(C(=O)N2CCCCC2)CC1`, the “hERG current change (%, negative = inhibition) at 10uM” value is listed as 16.7%.
The value for `Cc1cc(=O)[nH]c(N2CCCNCC2)n1` was 11.7%; that for `CCCCSc1nc2c(=O)[nH][nH]c(=O)c2n1Cc1ccccc1` was 2.51%; that for `O=C(CSc1nc(=O)n(CCCN2CCOCC2)c2c1CCCC2)Nc1ccc(F)cc1F` was -22.6%.
In the case of `O=C(NC1CCCc2c1cnn2-c1cc(F)cc(F)c1)c1ccc[n+]([O-])c1` (stereo not drawn), the “hERG current change (%, negative = inhibition) at 10uM” value is listed as -1.14%.
The value for `CC(C)(C)c1[nH]nc2c1C(c1ccoc1)C(C#N)=C(N)O2` (stereo not drawn) was -10.6%; that for `Cc1nc2cc(NCc3cc([N+](=O)[O-])ccc3O)ccc2n1Cc1ccccc1` was -2.18%.
With `COc1ccc(C)c(-n2c(N)cc(=O)n(Cc3ccccc3)c2=O)c1`, the “hERG current change (%, negative = inhibition) at 10uM” value came to 18.1%.
The value for `C/C=C/c1ccc(OCCCCOc2ccccc2C(C)=O)c(OC)c1` was -12.1%; that for `COc1ccc(CCn2c(N)c(S(=O)(=O)c3cccs3)c3nc4ccccc4nc32)cc1OC` was -26.2%.
Consider `CCOC(=O)C1CCCN(c2nnnn2-c2ccccc2)C1` (stereo not drawn), for which the “hERG current change (%, negative = inhibition) at 10uM” value is reported as -5.57%.
On to `N#Cc1c(Nc2ccccc2)sc(C(=O)C2CC2)c1N`, for which the “hERG current change (%, negative = inhibition) at 10uM” value stood at 20.7%.
Next, `c1ccc(NC2=NCCN2CCCC2CCCC2)cc1`: -53.4%.
The value for `CCOc1ccc(C(=O)Nc2cccc3ncccc23)cc1Cl` was 14.8%; that for `O=C(c1ccccc1F)c1cn(CC(=O)N2CCCCC2)c2ccccc12` was 0.0544%.
Consider `c1ccc(Nc2cccc3c(Nc4ccccc4)cccc23)cc1`, for which the “hERG current change (%, negative = inhibition) at 10uM” value is given as 0.102%.
With `COc1ccccc1NS(=O)(=O)c1cccc(C(=O)NCC(c2ccc(F)cc2)N2CCOCC2)c1` (stereo not drawn), the “hERG current change (%, negative = inhibition) at 10uM” value is listed as -34.3%.
For the compound `COc1ccc(S(=O)(=O)Nc2ccc(-n3cccc3)cc2)cc1`, the “hERG current change (%, negative = inhibition) at 10uM” value is listed as 10%.
Consider `Brc1ccccc1-c1cnco1`, for which the “hERG current change (%, negative = inhibition) at 10uM” value was 13.7%.
In the case of `O=C1CSC(=O)N1CCOCCN1C(=O)CSC1=O`, the “hERG current change (%, negative = inhibition) at 10uM” value amounted to 7.16%.
On to `O=c1[nH]nc(SCCS(=O)(=O)c2ccc(F)cc2)n1-c1ccccc1C(F)(F)F`, for which the “hERG current change (%, negative = inhibition) at 10uM” value was -6.83%.
Regarding `COCCNC(=O)CN(C(=O)CCC(=O)Nc1ccccn1)c1cc(C)ccc1C`, the “hERG current change (%, negative = inhibition) at 10uM” value is -6.02%.
With `CCC(C)NS(=O)(=O)c1ccc(S(=O)(=O)N(CC(=O)Nc2ccccc2)CC2CCCO2)cc1` (stereo not drawn), the “hERG current change (%, negative = inhibition) at 10uM” value is reported as -3.29%.
Next, `COc1ccc(S(=O)(=O)N2CCCCCC2)cc1C(=O)N(C)Cc1cccs1`: -40.5%; `COC(=O)c1ccccc1NC(=O)Cn1nc2n(C)c3ccccc3n2c(=O)c1=O`: -3.54%; `NC(=O)c1cc(S(=O)(=O)NCCc2ccccc2)cs1`: 15.5%.
In the case of `Cc1ccc(NC(=O)C2CCCC2)cc1Cl`, the “hERG current change (%, negative = inhibition) at 10uM” value is -2.92%.
For `O=C(N/N=C/c1ccc(OCCCF)cc1)c1ccc(C(F)(F)F)cc1`, the “hERG current change (%, negative = inhibition) at 10uM” value is recorded as 15.2%.
In the case of `CCc1nnc(NS(=O)(=O)c2ccc(NC(=O)COc3ccc4ccccc4c3)cc2)s1`, the “hERG current change (%, negative = inhibition) at 10uM” value is on record as 11%.
As for `CCCc1nc2ccccc2c(=O)n1-c1cccc(OC)c1`, the “hERG current change (%, negative = inhibition) at 10uM” value turned out to be 2.69%.
For `CCc1ccccc1NC(=O)CSc1ccsc1[N+](=O)[O-]`, the “hERG current change (%, negative = inhibition) at 10uM” value was found to be 15.2%.
`Cc1ccc(Cn2c(=O)c3ccccc3n3nc(C)cc23)cc1`: the “hERG current change (%, negative = inhibition) at 10uM” value was 17.7%.
Take `Brc1nc(-c2ccccc2)nc(-c2ccccc2)c1Br`: the “hERG current change (%, negative = inhibition) at 10uM” value is -5.38%.
The value for `C=CCSc1nc2ccsc2c(=O)n1-c1ccccc1` was 13.3%; that for `COc1ccc(-c2cc(-c3nnc(COC(=O)c4ccncc4)o3)c3ccccc3n2)cc1OC` was 4.32%; that for `COc1ccc(N(C)C(=O)c2sc(Cl)nc2C)cc1` was 6.04%.
Regarding `COc1ccc(S(=O)(=O)N(CC(=O)O)c2ccccc2)cc1`, the “hERG current change (%, negative = inhibition) at 10uM” value was found to be 12.3%.
Next, `Cc1ccc(C)c(S(=O)(=O)Nc2ccc3scnc3c2)c1`: 14.1%.
Regarding `Cc1ccc(S(=O)(=O)N2CCCCC2)cc1NC(=S)NC(=O)c1ccco1`, the “hERG current change (%, negative = inhibition) at 10uM” value is listed as 8.18%.
For the compound `O=C(c1cccs1)N1CCN=C1SCc1ccccc1`, the “hERG current change (%, negative = inhibition) at 10uM” value came to 7.77%.
With `COc1ccc(C2C(C#N)=C(/N=C/N3CCN(C)CC3)OC3=C2C(=O)CC(C)(C)C3)cc1OC` (stereo not drawn), the “hERG current change (%, negative = inhibition) at 10uM” value turned out to be 8.95%.
As for `NC(=O)CC1C(=O)N(c2ccccc2)C(=S)N1NC(=O)c1ccccc1` (stereo not drawn), the “hERG current change (%, negative = inhibition) at 10uM” value came out at 26.9%.
`COc1cc2c(cc1OC)CN(CC(=O)Nc1ccc(C)c(S(=O)(=O)N3CCOCC3)c1)CC2`: the “hERG current change (%, negative = inhibition) at 10uM” value was -14.9%.
For the compound `C/C(=N\Nc1ccc(Cl)cc1)c1ccccn1.Cl`, the “hERG current change (%, negative = inhibition) at 10uM” value is -20.9%.
Turning to `COc1ccc(CNc2nnnn2C)c(OC)c1`, the “hERG current change (%, negative = inhibition) at 10uM” value is -1.37%.
Next, `CCN(CC)C(=S)Nc1ccc(OC(F)F)cc1`: -28.6%; `CCCCNC(=O)N(O)C1N(/N=C/c2ccccc2F)C(=S)SC1(C)C` (stereo not drawn): 16.5%; `C1CCN(CCCNC2C3CC4CC(C3)CC2C4)C1.Cl` (stereo not drawn): 3.35%.
As to `Cc1ccc2c(Cl)cc(Cl)c(OCC(=O)N(C(C)C)C(C)C)c2n1`, the “hERG current change (%, negative = inhibition) at 10uM” value is -0.825%.
Consider `COC(=O)c1sccc1NC(=O)CC1C(=O)NCCN1C(=O)c1ccccc1` (stereo not drawn), for which the “hERG current change (%, negative = inhibition) at 10uM” value came to 10.2%.
Turning to `COCCCNC(NC(=O)c1ccc(Cl)cc1)C(Cl)(Cl)Cl` (stereo not drawn), the “hERG current change (%, negative = inhibition) at 10uM” value was -9.55%.
With `CCN1CCC2(CC1)NC(CO)(CO)CO2`, the “hERG current change (%, negative = inhibition) at 10uM” value worked out at 9.44%.
Take `O=C(CNC(=O)c1ccccc1)OCC(=O)c1ccccc1Cl`: the “hERG current change (%, negative = inhibition) at 10uM” value turned out to be 26.7%.
Next, `C/C(=C\C(=O)c1ccccc1)Nc1ccc(Cl)c(Br)c1`: 7.41%.
For `O=C1c2ccc(Cl)cc2S(=O)(=O)c2cccc(C(=O)N3CCN(c4ccc(Cl)cn4)CC3)c21`, the “hERG current change (%, negative = inhibition) at 10uM” value is -39.9%.
`CCOC(=O)C1C(c2ccc(C)o2)NC(=O)NC1(O)C(F)(F)F` (stereo not drawn): the “hERG current change (%, negative = inhibition) at 10uM” value was 5.67%.
The value for `CCc1ccccc1NC(=O)C1CCCN(c2ncccn2)C1` (stereo not drawn) was 15.2%.
Next, `Cc1ccc2nc(N3C(=O)C(O)=C(C(=O)c4ccco4)C3c3cccc(O)c3)sc2c1.O=C(O)C(=O)O` (stereo not drawn): -0.0861%.
Consider `COc1ccccc1CCNC(=O)CCCn1nc(C)c2c(C)n(-c3ccc(C)cc3)nc2c1=O`, for which the “hERG current change (%, negative = inhibition) at 10uM” value is given as -16.6%.
Next, `Cc1c(CC(=O)O)c(=O)oc2c(C)c3occ(-c4ccc(F)cc4)c3cc12`: 16.3%.
For `Cc1csc(NC(=O)/C=C/c2ccc3c(c2)OCO3)n1`, the “hERG current change (%, negative = inhibition) at 10uM” value was found to be 10%.
With `O=C(CCCN=C1NS(=O)(=O)c2ccccc21)OCC(=O)c1ccccc1`, the “hERG current change (%, negative = inhibition) at 10uM” value is 4.47%.
`O=C(NCc1cccc(Br)c1)C1CC2Cn3c(nc4ccccc43)C2N1c1ccccc1` (stereo not drawn): the “hERG current change (%, negative = inhibition) at 10uM” value is on record as -20.5%.
As to `Clc1ccc(SCCn2ccnc2)cc1`, the “hERG current change (%, negative = inhibition) at 10uM” value is -1.48%.
As for `Cc1ccccc1NC(=S)N(CCCN1CCOCC1)Cc1ccccn1`, the “hERG current change (%, negative = inhibition) at 10uM” value is given as -7.79%.
With `Cc1ccc(Oc2cnc3ccccc3n2)cc1`, the “hERG current change (%, negative = inhibition) at 10uM” value is -13.7%.

Source of the values: article PMC4336329 (PLoS ONE, 2015).
